About 540 (0.36%) of roughly 150,000 compounds showed an effect of 50% or more. The list shows a part of the results.

The test deals with Plasmodium falciparum. Kind of test: Primary screen in NF54 nanoGlo assay, in single point, at 2uM, 72h; a lower Z score goes with more inhibition. Type of test: functional, Erythrocyte. The note with it: timepoint 72 hour.
As a reminder, the % Inhibition is the drop in the measured response relative to a control, in per cent. For the compound `O=S1(=O)CCC(Nc2ccc(F)cc2S(=O)(=O)C(F)(F)F)CC1`, the “% Inhibition” value was found to be 2% and the Z score is -0.18.
`COc1cc2c(cc1OC)CC(=O)N(CC(=O)N[C@H]1CC(=O)N(C(C)(C)C)C1)C=C2`: the “% Inhibition” value stood at 1% and the Z score is -0.19.
For `Cc1ccc([C@H](C)NC(=O)CN2C(=O)C3(CCNCC3)Nc3ccccc32)cc1`, in that order: -3% and 0.42.
Take `OC[C@H]1CCCN(CCNCc2ccc(F)c(F)c2)C1`: the “% Inhibition” value is reported as -8% and the Z score came out at 1.44.
In the case of `O=C(Cn1ccccc1=O)N[C@H]1COCC[C@@H]1Oc1ccc(CO)cc1`, the “% Inhibition” value is -7% and the Z score came to 0.9.
Taken in the same sequence, the figures for `C[C@H](O)CNc1cncc(OC2CCCCC2)n1` were -11% and 2.14.
Taken in the same sequence, the figures for `Cc1nc(CC(=O)N2Cc3[nH]c4ccccc4c3C[C@H]2C(=O)O)cs1` were -23% and 2.04.
For `C[C@H]1CN(C(=O)c2ncccc2O)C(C)(C)CO1`, in that order: -7% and 1.25.
As for `Fc1ccc(F)c(CN2CC[C@H](c3nn[nH]n3)C2)c1`, the “% Inhibition” value is -7% and the Z score was found to be 1.17.
Turning to `Cc1cc(C(=O)N2CCC[C@@H](NC(=O)c3cc(C#N)ccn3)C2)on1`, the “% Inhibition” value is -11% and the Z score turned out to be 1.46.
Taken in the same sequence, the figures for `CN1CCN(Cc2noc([C@H]3CCOC(C)(C)C3)n2)CC1` were -8% and 1.57.
Taken in the same sequence, the figures for `Cc1ncsc1C(=O)N(Cc1ccccn1)c1ccc(F)cc1` were 6% and -0.67.
For `C[C@@H]1CN(C(=O)c2ccc(C(N)=O)cc2)C[C@H](C)N1C`, in that order: -5% and 0.93.
On to `Cc1cc(N)nc(C)c1-c1cccc(C(=O)NCCc2ncnn2C)c1`, for which the “% Inhibition” value is on record as -10% and the Z score is given as 1.46.
For the compound `CCn1ccnc1C(=O)NC[C@H]1CCOc2ccccc21`, the “% Inhibition” value is 4% and the Z score is on record as -0.76.
Taken in the same sequence, the figures for `COc1ccc(C(=O)c2cnc3ccc(F)cc3c2N2CCN(Cc3ccccc3)CC2)cc1` were -3% and 0.43.
On to `COc1ccc(CN2C(=O)N(Cc3ccc(F)cc3Cl)c3ccccc3S2(=O)=O)cc1`, for which the “% Inhibition” value is given as -1% and the Z score stood at 0.13.
Taken in the same sequence, the figures for `COc1ccc(CN2CC[C@H]2C(=O)Nc2ncn(C(C)C)n2)cc1` were -7% and 1.25.
For `OC1CCN(c2nc3cc(F)ccc3cc2CNC[C@H]2CCCO2)CC1`, in that order: -6% and 1.23.
With `CNc1nc(CN(C)C[C@H]2COCCO2)cs1`, the “% Inhibition” value is recorded as -14% and the Z score is 1.74.
For `CCNC(=O)c1nn(Cc2ccccc2)c2c1C[C@@H](N1CCN(C)CC1)CC2`, in that order: 0% and -0.05.
Taken in the same sequence, the figures for `CCc1cc2c3c([nH]c2cc1S(=O)(=O)NCc1ccc(C)cc1)CCCC3=O` were -7% and 1.34.
For `Cc1ccc(C(=O)O)c(N2CCC[C@H](C#N)C2)n1`, in that order: -18% and 2.66.
`O=C1N(CCc2ccccc2)CCC[C@@]1(O)CNC1CCCCC1`: the “% Inhibition” value is reported as -11% and the Z score was found to be 1.71.
Turning to `COc1cc(C(=O)NCC2CCN(Cc3ncc[nH]3)CC2)ccn1`, the “% Inhibition” value is -4% and the Z score was 0.75.
For `Cc1ccccc1CC(=O)N[C@@H](CCO)C(C)(C)C`, in that order: -10% and 1.32.
Taken in the same sequence, the figures for `Cc1nc2c(s1)CN([C@H](C#N)c1cccs1)CC2` were -7% and 0.96.
Taken in the same sequence, the figures for `Cc1nc(C(=O)NCC(C)(C)O)cs1` were -8% and 1.5.
Take `CN(C)C(=O)[C@@H]1C[C@@H](Oc2ccncc2)CN1Cc1cccnc1`: the “% Inhibition” value is listed as -5% and the Z score was 0.71.
For `COC(=O)c1cnc(NCCc2c[nH]c3ccccc23)c(S(=O)(=O)N2CCOCC2)c1`, in that order: 4% and -0.73.
Taken in the same sequence, the figures for `CCCN1CCN(Cc2nccn2CC)[C@H]2CS(=O)(=O)C[C@H]21` were -8% and 0.74.
Taken in the same sequence, the figures for `CCCCc1ccc(N(C)C(=O)CCN)cc1` were -9% and 1.12.
`COc1ccc(NC(=O)CCn2ccccc2=O)cc1OC(F)F`: the “% Inhibition” value is given as 0% and the Z score is given as -0.01.
For `CCOC(=O)N1CCC2(CC1)C[C@@H](c1ccccc1)C(=O)N(CC)C2`, in that order: -16% and 2.85.
For `COC(=O)[C@@H]1CCCN1C(=O)C(c1ccccc1)c1ccccc1`, the “% Inhibition” value was found to be 4% and the Z score is recorded as -0.54.
Turning to `Cc1nc(C)c([C@H](C)NC(=O)NC2CCC(O)CC2)s1` (some centres undefined), the “% Inhibition” value is recorded as -7% and the Z score is reported as 0.87.
For `Cc1nc(NC(=O)NC2CC2c2ccccc2)oc1C` (centres undefined), in that order: 4% and -0.56.
Taken in the same sequence, the figures for `Cc1cc(C)n(CCC(=O)NCCc2nc(-c3cccnc3)n[nH]2)c(=O)n1` were -8% and 1.45.
`C[C@@H](Cc1cnccn1)Nc1nc(C2CCCC2)nc2c1CNC2`: the “% Inhibition” value is -8% and the Z score worked out at 1.5.
As to `Cc1ccnc([C@@H](NC(=O)c2cccn2C2CC2)C2CC2)c1`, the “% Inhibition” value is -5% and the Z score was 0.7.
For `Cc1cccc(-n2cc(-c3ccccc3)nc2NC(=O)CN(C[C@H]2CCCO2)C(=O)c2ccccc2C)c1`, the “% Inhibition” value is -5% and the Z score is reported as 0.67.
Taken in the same sequence, the figures for `COC(=O)[C@H](C)N1CCN(CC2CC2)CC1` were 2% and -0.26.

The record behind these values is ChEMBL document CHEMBL4888484, “Replenishing the malaria drug discovery pipeline: Screening and hit evaluation of the MMV Hit Generation Library 1 (HGL1) against asexual blood stage Plasmodium falciparum ,using a nano luciferase reporter read-out” (2022).
